The source gives no read counts; variants with many changes may rest on few reads.
B1: OR4K15 (parent)
chain: GUUAACGGUCAUAGGCCAUGGAAACUAGGAGCACCAUUUCGCUGCCAGUGAAGAAAUGAACAAAGAAAAUCUGGGCCAGGCAGGCAUCAAAAGAAAUAGUCUUGCGCUCAACCAGAAAGUCUGUAAUCAUUUUAAGGGUA

Variants of: B1
Assay: self-cleavage, relative activity (ratio to wild type); higher = more cleavage; in vitro, sequencing; the parent is a self-cleaving ribozyme

Variant | self-cleavage
U37C A47G A140G | 1.3
A62G A67G A116G | 0.16
A18U A23G A96G U102C | 1.13
A11G A51G U133C | 0.98
U38C U57C A78C G123U | 0.44
A23G A86G A96U U102C | 1.88
A18G A63G A110C | 0.39
A54G U57A A92G A129U | 0.91
A11G A33U A56G A96U A135G | 1.54
A30G A66G U103G | 0.11
A22G A52G U102C U108C G115U | 0.02
A33G A91G U132C | 0.7
G14A A52G A62G | 1
U19C A67G U103C | 1.12
A5G A67G U100C U127C U131C | 2.14
A66G A69G U122C G137A | 1.07
A54G A59G A114U A126C U127C | 0
U12C A96G U100C A114U | 0.09
A11G U37C A52U A68G U87C U130C | 0.46
A27U A52G A92G A118G | 1.23
A67G A78U A82U U87C | 0.11
U100G A118G U122A | 2.23
G8A U38C A54G | 2.37
A4G A89G A117G | 0.99

Variant | self-cleavage
C40U A67G G123U | 1.92
A55G A69U A125G | 0.65
G1A U12C G80A U87A U108C | 0.07
A63G A94U A117G | 1.97
A5G A13U A22G G29C A51U A54G A116C | 0.04
U2A U38C G41A A82G A125G U127G | 0.07
A11U A36G A86U | 0.81
G7A A51G U57A | 0.93
A11G U12C U70C U87C A110G A114U | 0.05
G44C A78G U139C | 0.24
A24C A68G A89G A95G A129G | 1.64
A47U A56G U108C A126G | 0
C45U U120C U124C | 0.19
A52G A55G U100A | 0.09
A23G A30G C61U | 0.61
U3C U12C A63G A64G C81A | 0.36
A18G U19C A55G | 1.21
A11U A18G A52U A68G A111G | 0.1
U2A U108C A118G | 0.04
A27G U49A A96G A126G | 0.73
A23G A68C U72A U100C | 0.51
A52G A92G U102A | 1.39
G14A A86G U97C A116G | 0.31
A36U U120G U131C | 1.96

Variant | self-cleavage
U19A A64G A116U | 0.43
U43A A55G A66G A110G U132C | 0.18
A5U A11U A23G C77U | 1.14
A22G A27G A52C A63G A114G A117G | 0.78
U38A G44A U49A | 1.97
U39C U49C U120C U130C | 0.54
A5U A36G A51U A78G G136A | 0.56
U26A A82U U100A | 0.04
G29A A33C A36G A55G A117U | 0.94
A27G U103C U120C | 0.68
A11G A129C G136A | 0.59
A22G A51G A60G U72A C121A A134G | 0.35
A23G A63G U100C U132A | 1.87
A5G G28A A63G | 0.71
U12A A22G A98G | 0.3
A11U A110G U124C | 0.06
A23G A54G A56G | 1.42
U43C A51U A116U U120C | 0.03
A5G A18U A55G U127C | 1.41
A63G C76U A95G | 0.03
A60G A67G A89U U103C U108A U120C | 0.01
A52G A62G A64G G74A U97C | 0.16
A23U U72C A94G | 0.32
A60U U103C U108C | 0

Variant | self-cleavage
U100C A117G A129G | 2.42
A52G A67G A110G A118G | 0.07
A47U A69G A89G U100A A110G A129G | 0.01
A51G A69G A125G U131C | 0.3
U26A A47G A68G A69G U87C | 0.18
U102C U127C U130C | 1.14
A54G A114U U124G | 0.02
A11G A27G A117G | 0
C6U A56G U97A U108C A125G | 0.01
U38C A96U G136U | 0.93
U12C A54U G65A A98G | 0
U19G U38C U72G | 0.55
C32U A62G A90U A129G | 1.72
U9C A18U C61U A95G | 1.52
A24C A30G U122C | 1.18
A24U A92G G106A A125G | 0.01
U9C A24C A78G U97G A111G | 0.07
A22G A64G A67G C112U A125G | 0
A64C A86C A89G | 0.34
C40U A69G U87A | 1.3
A60G A86U A95U | 0.24
A67G A96G A98G | 0.96
U3A A51G A62G A82U A116G | 0
G1A U70C U87C | 1.34

Variant | self-cleavage
U39C A47G A63G U97C G137A | 0.08
A18G A67G A68G A86G | 0.88
U2C U38C A95U U102C U132C | 1.04
U2C G14A A64G A86U | 0.6
A13U G15U A23G A82G U102A A110G | 0.01
U19A C46U C85U | 1.09
A55G U72C G75A | 0.28
U19C U26C A56G U57C | 0.62
A22G A23U A33U A56G U70C A125G | 0.85
U37C U39C A52C A64G U72C A95G | 0.3
U2C A30G A63G U108C A116G | 0.02
A86G A94G C105A A125U | 0
A51G A62G A91G | 1.44
U37A U38C U57A A64G | 1.51
A27U U39C A67G | 1.39
U39A U43C A62G A63G | 1.17
A30G A47U A90G | 0.57
U9C U12A G74C A96G | 0.53
A54G A68G A111G | 0.02
U103C A110C A118G | 0.04
A33U U39C A60G | 1.4
A27G U38A U120C | 0.88
A89C A90G U130C | 1.93
A24G A47G A54G | 1.55

Variant | self-cleavage
U26C U70C U122C | 0.18
U19C A30U A67G | 0.88
U9C A52G A60G A111G | 0.09
A63G A67G U139C | 1.71
A94G U103C A126G | 0.05
U39G U43C G74C A86G C112U | 0.01
U37C A47G U120C | 1.13
C61U G73U U87A | 0.12
A51G G83A U87C | 1.61
A36G G50U A140U | 1.23
C6A A67G A96G U102C | 1.48
A91G C128A U132C | 0.37
U37C U102C U122C | 1.97
A23G C34A A56G U102G | 0.8
A5U A64G A117U | 0.44
U38C U43C A52G | 1.06
A13G A63G G123A | 0.66
A18U A59U A62U A134G | 1.35
U2C G41A A51G G65U | 1.82
A23G A55U A63G C113U | 0.11
U2C A69G A89U U108C | 0.07
A62C A82U A111G | 0
A90G U97C U131C A135G | 0.15
U72C C113A A116G | 0

Variant | self-cleavage
A51G A95G U131C | 1.65
A5C A18G A22G A92G U120A A126G | 0.8
G8A A52G G73A A114G A126G | 0.02
A56G A64G A66G | 0.67
A5G A24G A67G U87C A89G A96U A116G | 0.56
A33G U39C A82U C85G U127C | 0.09
A54G C77G A114G | 0.1
G8A A47G C61U A62G G75C A117G | 0.21
A22G A51G A62G A67G A94G | 1.03
U43C A51G A66G A111G | 0.02
A64U A67G A82G A86G U130C | 0.09
U57C C112A U132C | 0.02
C10U C42U A67G | 0.76
A89G U100C U132C A134C | 2.23
U19C A54G U120C | 1.16
A90G U120C U131G | 0.51
C81U A91G U102A U124C | 0.02
A95G A116G A129U U133A | 1.52
A23G A27G U139C | 0.46
A5U U102A A111G A116G | 0.03
A47G G106U U131C | 0
A94G A134G A135G | 1.51
A116G U132C U133C | 0.38
